Here are results for 42 compounds from ChEMBL document CHEMBL4888484, “Replenishing the malaria drug discovery pipeline: Screening and hit evaluation of the MMV Hit Generation Library 1 (HGL1) against asexual blood stage Plasmodium falciparum ,using a nano luciferase reporter read-out” (2022).

A word on the % Inhibition: it is the drop in the measured response relative to a control, in per cent.

Among all 150,000 compounds or so, about 540 (0.36%) showed an effect of 50% or more. The list shows a part of the results.

For this assay, the system named is Plasmodium falciparum. As to the kind of experiment: Primary screen in NF54 nanoGlo assay, in single point, at 2uM, 72h; a lower Z score goes with more inhibition. The note with it: timepoint 72 hour. The class given is functional, Erythrocyte.
Turning to `O=C(CCC(=O)c1ccc(Cl)cc1)N[C@H]1CCS(=O)(=O)C1`, the “% Inhibition” value is -8% and the Z score turned out to be 1.57.
As for `COc1cccc([C@@H]2C(=O)N(Cc3cn(C)nn3)C(=O)N2C)c1`, the “% Inhibition” value is given as -5% and the Z score was 0.85.
Regarding `Cn1cc(C[C@@H](CO)NS(=O)(=O)c2cc(F)cc(Cl)c2)cn1`, the “% Inhibition” value is reported as -25% and the Z score is given as 2.13.
Take `O=C(O)CC1(CNC(=O)CCc2nc(-c3ccc4cc[nH]c4c3)no2)CCCCC1`: the “% Inhibition” value turned out to be 8% and the Z score is on record as -1.04.
On to `NC(=O)c1cccnc1N1CCC(n2cc(-c3ccccn3)nn2)CC1`, for which the “% Inhibition” value is listed as -21% and the Z score was found to be 1.88.
Turning to `CN(C[C@@H]1CC=CCC1)CC(C)(C)S(C)(=O)=O`, the “% Inhibition” value is -11% and the Z score was found to be 1.56.
The like results for `c1cncc(-c2n[nH]cc2CNc2nnc(-c3cccs3)o2)c1` were, in that order, -11% and 1.48.
In the same order, the values of `CC(C)C[C@@H]1CN(C(=O)CCCc2c[nH]c3ccccc23)CC[C@]1(C)O` are -1% and 0.17.
Regarding `Cc1nc(-c2ccccc2OC2CN(C(=O)c3cnn(C)c3)C2)no1`, the “% Inhibition” value turned out to be 0% and the Z score is given as -0.02.
Consider `CC(C)[C@H](CO)CNC(=O)c1cc(C(C)(C)C)nc(=O)[nH]1`, for which the “% Inhibition” value was 4% and the Z score is reported as -0.72.
`Cc1nn(C(=O)N2CCCCC2)c(C)c1CN1C(=O)c2ccccc2C1=O`: the “% Inhibition” value is reported as -8% and the Z score is listed as 1.07.
`Cc1ccn2c(=O)c(C(=O)NCCO)c(O)nc2c1`: the “% Inhibition” value was 2% and the Z score is recorded as -0.3.
For `Nc1nnc(CCn2cc(-c3ccc(CO)o3)nn2)s1`, the “% Inhibition” value is -14% and the Z score is reported as 2.36.
As to `Cn1c(=O)ccn(CC(=O)N(Cc2ccco2)C2CC2)c1=O`, the “% Inhibition” value was found to be 10% and the Z score was -1.35.
As for `Cc1ccc(NCc2cnc3ccnn3c2)cc1OC(F)F`, the “% Inhibition” value amounted to 7% and the Z score was -1.25.
For the compound `CC[C@@H](Cn1nnc2ccccc2c1=O)NC(=O)Nc1ccc(C)cc1C`, the “% Inhibition” value was 6% and the Z score is -1.13.
In the same order, the values of `COc1ccc(-n2cc(-c3cccc(OC)c3)nc2NC(=O)CN(CC(C)C)C(=O)Cc2ccccc2)cc1` are -4% and 0.52.
In the same order, the values of `O=C(NCc1ccc2c(c1)OCO2)N1CCC[C@H]1c1ccncc1` are -7% and 1.22.
Turning to `CCn1cc(-c2c(-c3ccccc3)ncn2[C@@H](C)Cc2cnccn2)c(C)n1`, the “% Inhibition” value was -15% and the Z score came to 1.42.
As for `CN(Cc1ccccc1)C(=O)CCC1CCN(C(=O)c2cccc(N)n2)CC1`, the “% Inhibition” value was -15% and the Z score is 1.59.
For `COc1ccnc(CN2CCC(CNC(=O)c3cc(C(C)C)no3)CC2)c1OC`, the “% Inhibition” value is -3% and the Z score stood at 0.62.
As for `CCc1noc(NC(=O)Cc2c(C)noc2C)c1C`, the “% Inhibition” value is -83% and the Z score is 15.97.
For the compound `CC(C)c1nnc2ccc(NC(=O)[C@@H]3COCCO3)cn12`, the “% Inhibition” value was -6% and the Z score worked out at 0.91.
On to `Cc1cc(NC(=O)COc2ccc3c(c2)CCC3=O)n(C)n1`, for which the “% Inhibition” value is on record as -5% and the Z score came to 0.61.
The like results for `O=C(NOCc1ccccc1)N1CCN(c2ccccc2O)CC1` were, in that order, -1% and 0.13.
As to `COc1ccc(NC(=O)Cn2c3cc(=O)n(N4CCN(C)CC4)c(C)c3c(=O)n2-c2nc3ccccc3s2)c(OC)c1`, the “% Inhibition” value is on record as 1% and the Z score is listed as -0.15.
Turning to `COc1nc(N2CCC3(CC2)CNC(=O)O3)ncc1F`, the “% Inhibition” value amounted to 3% and the Z score was -0.48.
The like results for `COc1cc(NC(=O)N[C@H]2CCCn3ncnc32)n(C)n1` were, in that order, 4% and -0.58.
In the case of `Cc1ncn(C)c1C(=O)N(C)Cc1ccc(CN(C)C)cc1`, the “% Inhibition” value was -15% and the Z score was determined as 1.56.
Regarding `COc1ccc(CC(=O)Nc2ccc(N3CCNC(=O)C3)nc2)cc1`, the “% Inhibition” value is reported as -6% and the Z score came out at 0.57.
In the case of `Cc1nccc(O[C@H]2CCCN(C(=O)C3CCCC3)C2)n1`, the “% Inhibition” value is 3% and the Z score is -0.35.
On to `CCC(NS(=O)(=O)c1c(C)cccc1Cl)[C@H]1C[C@H](O)C1` (some centres undefined), for which the “% Inhibition” value is listed as -5% and the Z score came out at 0.57.
In the case of `CC1CCCCC1NC(=O)c1ccc(CN2C(=O)CCn3nccc32)cc1` (centres undefined), the “% Inhibition” value turned out to be 10% and the Z score is listed as -1.15.
`COc1cccc(C(=O)N2CC3(C[C@H](N(C)Cc4ccccc4)CO3)C2)c1OC`: the “% Inhibition” value is on record as -8% and the Z score is given as 1.18.
Take `Cc1cc(=O)c(CO)nn1CCOCC1CC1`: the “% Inhibition” value was -1% and the Z score was determined as 0.21.
For `Cc1ccc(N(C)C(=O)c2ncccc2O)cc1N(C)C`, the “% Inhibition” value came to 0% and the Z score is listed as -0.03.
Take `Cc1ccc(S(=O)(=O)N2CCCN([C@H]3CCOC3)CC2)s1`: the “% Inhibition” value is recorded as -16% and the Z score stood at 2.74.
Consider `Cc1cccc(Cl)c1S(=O)(=O)N(C)[C@@H](C)CC(N)=O`, for which the “% Inhibition” value was -14% and the Z score came out at 1.83.
For the compound `CCN(CC)Cc1ccc2c(c1)CN(C(=O)c1sccc1C)CCO2`, the “% Inhibition” value is reported as -6% and the Z score is 0.59.
On to `OC[C@H]1CCCN(c2ccc(C(F)(F)F)cn2)[C@H]1CO`, for which the “% Inhibition” value was 29% and the Z score is -3.28.
For the compound `Clc1cccc2[nH]c(-c3nc([C@H]4CCOC4)no3)cc12`, the “% Inhibition” value is given as -5% and the Z score is recorded as 0.83.
`Cc1cc2[nH]cc(C(=O)N3CC[C@@]4(CCCN(CC5CC5)C4=O)C3)c(=O)n2n1`: the “% Inhibition” value is recorded as 2% and the Z score was -0.19.
